# According to PubChem BioAssay (NCATS):
# Inconclusive means that the source gave no clear call. Such entries were picked first, then a sample of the others. For some of these results: No potency is given beside an inconclusive call; the fits are too rough. The source made the active and inactive calls. Unless noted, calls come from the whole dose curve; as a rule, active = well fitted curve in the direction sought with a large enough effect; inconclusive = small, poorly fitted or top-dose-only effect, or another doubt; inactive = no such curve, though single readings can be large; an effect the other way counts as inactive or inconclusive.
# Experiments:
# [1] = qHTS of pediatric cancer cell lines to identify multiple opportunities for drug repurposing: Primary screen for BT-12 cells (AID 1347101);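 note: plate controls were DMSO for no effect and bortezomib positive control for full effect; nearly all actives have a fitted effect of over 25% in size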
# Procedure, shortened: (§1)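 Cells (500-1,000/well) rested 5 h, then received compounds for 48 h; metabolically active cells were measured by CellTiter-Glo luminescence. Final concentrations spanned up to 46 µM (MIPE, 11-point) or 0.59 nM-46 µM (NPC, 8-point) in primary screens, 11-point in follow-ups.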
# [2] = qHTS of pediatric cancer cell lines to identify multiple opportunities for drug repurposing: Primary screen for Rh41 cells (AID 1347108);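 note: luminescence drop marks cytotoxic hits; nearly all actives have a fitted effect of over 70% in size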
# Procedure, shortened: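 Phenotypic viability qHTS, 48 h compound exposure, CellTiter-Glo luminescence read-out; multi-concentration dosing so that potency and efficacy derive directly from the primary screen's curves.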
# [3] = Primary qHTS for small molecule stabilizers of the endoplasmic reticulum resident proteome: Secreted ER Calcium Modulated Protein (SERCaMP) assay (AID 1508630); conditions: SH-SY5Y GLuc-SERCaMP (Gaussia luciferase released on ER calcium loss) secretion, thapsigargin, luminescence; activity change, negative = inhibition: at 38.4 µM (top of the series); note: potency is the fitted concentration of half-maximal effect
# Procedure, shortened: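 GLuc-SERCaMP-expressing SH-SY5Y cells, pretreated 16 h with compound, are challenged with thapsigargin to empty ER calcium stores; after 4 h, coelenterazine is added directly to the medium and luminescence is imaged.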
# [4] = target: Glutathione peroxidase 1 (Homo sapiens) (UniProt P07203); assay: Primary qHTS Assay for Inhibitors of Recombinant Selenoprotein Glutathione Peroxidase 1 (GPX1) (AID 1845191); conditions: activity, negative = inhibition: at 48.8 µM (top of the series); note: nearly all actives have a fitted effect of over 65% in size; note: potency is the fitted concentration of half-maximal effect; for activity, negative = inhibition: % is set by controls: 0 for no effect and ±100 for the full control effect
# Procedure, shortened: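 Recombinant GPX1 (10 nM final) was preincubated with compound for 30 min at room temperature, then reacted with 1 mM GSH, 0.5 mM CHP, 0.5 mM NADPH and 100 nM glutathione reductase; NADPH fluorescence (340/450 nm) was read at 0 and 15 min.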
# [5] = target: Phospholipid hydroperoxide glutathione peroxidase GPX4 (Homo sapiens) (UniProt P36969); assay: Primary qHTS Assay for Inhibitors of Recombinant Selenoprotein Glutathione Peroxidase 4 (GPX4) (AID 1845192); note: nearly all actives have a fitted effect of over 65% in size; note: potency is the fitted concentration of half-maximal effect; for activity change, negative = inhibition: % is set by controls: 0 for no effect and ±100 for the full control effect
# Procedure, shortened: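 GR-coupled readout: 100 nM GR, 1 mM GSH, 0.5 mM NADPH; NADPH fluorescence (ex 340/em 450 nm) read at t=0 and after 15 min RT. GPX4 200 nM, preincubated 30 min with compound; substrate 0.5 mM CHP.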
# Es-2 = assay: Primary qHTS to identify gynecologic anti-cancer compounds using libraries of approved drugs and bioactive compounds (AID 1345084); conditions: Gynecologic cancer cell panel viability, ATPlite luminescence, 48 h; series mostly up to 57.5 µM; note: nearly all actives have a fitted effect of over 55% in size; note: potency is the fitted concentration of half-maximal effect; for activity change, negative = cytotoxicity: % is set by controls: 0 for no effect and ±100 for the full control effect
# Procedure, shortened: (§2)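 In this quantitative HTS, cell killing is estimated from loss of ATP-dependent luciferase light. Cells see five compound concentrations over a 48 h exposure.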
# HeLa = assay: as above; conditions: Gynecologic cancer cell panel viability, ATPlite luminescence, 48 h; series mostly up to 57.5 µM
# Procedure, shortened: as §2
# Tov112D = assay: as above; conditions: Gynecologic cancer cell panel viability, ATPlite luminescence, 48 h; activity change, negative = cytotoxicity: at 57.5 µM (top of the series)
# Procedure, shortened: as §2
# [6] = target: Cytochrome P450 2C9 (Homo sapiens) (UniProt P11712); assay: Cytochrome P450 family 2 subfamily C member 9 (CYP2C9) small molecule antagonists: luciferase biochemical (cell-free) qHTS assay (AID 1645842; active = well fitted curve in the direction sought with a large enough effect in the repeat runs; inconclusive = weak or mixed curves; inactive = no such curve, though single readings can be large; an effect the other way counts as inactive or inconclusive; note: potency is the fitted concentration of half-maximal effect; nearly all actives have a fitted effect of over 55% in size)
# Procedure, shortened: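 Luminescence, after 20 min with luciferin detection reagent, reflected CYP2C9 turnover during a 1 h NADPH-driven reaction at 37C. Enzyme-substrate mix contained 0.4% bovine serum albumin and was preincubated with compound 10 min at room temperature.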
# [7] = qHTS of pediatric cancer cell lines to identify multiple opportunities for drug repurposing: Primary screen for SK-N-MC cells (AID 1347093); conditions: SK-N-MC viability, CellTiter-Glo luminescence, 48 h; activity change, negative = cytotoxic: at 46 µM (top of the series); note: potency is the fitted concentration of half-maximal effect
# Procedure, shortened: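 Metabolically active cells were quantified by ATP-dependent luminescence (CellTiter-Glo, 15 min at room temperature) following 48 h treatment. Cells had been plated at 500-1,000 per well and settled for 5 h beforehand.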
# [8] = qHTS of pediatric cancer cell lines to identify multiple opportunities for drug repurposing: Primary screen for SK-N-SH cells (AID 1347098); conditions: SK-N-SH viability, CellTiter-Glo luminescence, 48 h; activity change, negative = cytotoxic: at 57 µM (top of the series); note: nearly all actives have a fitted effect of over 65% in size; note: potency is the fitted concentration of half-maximal effect;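 for activity change, negative = cytotoxic: DMSO served as neutral control and bortezomib at 2.3 µM as positive control; % is set by controls: 0 for no effect and ±100 for the full control effect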
# Procedure, shortened: as §1
# [9] = qHTS of pediatric cancer cell lines to identify multiple opportunities for drug repurposing: Primary screen for OHS-50 cells (AID 1347103); note: potency is the fitted concentration of half-maximal effect; nearly all actives have a fitted effect of over 40% in size
# Procedure, shortened: as §1
# [10] = A High-Content qHTS Against Drug Library for the Identification of Small Molecules that Inhibit DYT1 Early Onset Primary Dystonia-Associated Cell Pathology (AID 1645839; calls by dose curve; note: potency is the fitted concentration of half-maximal effect)
# Procedure, shortened: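 Readout: %pathology, the punctate EGFP-TorsinA distribution from imaging, as the primary channel and cell count as the toxicity counterscreen. HEK293 Flp-In cells expressing delE TorsinA were induced with tetracycline and treated with compound for 48 h.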
# [11] = qHTS of pediatric cancer cell lines to identify multiple opportunities for drug repurposing: Primary screen for LAN-5 cells (AID 1347100);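 note: plate controls were DMSO neutral control for no effect and bortezomib positive control for full effect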
# Procedure, shortened: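 Cells (500-1,000/well) in growth media were settled 5 h at 37 degrees C, then given compounds for 48 h. Viability was read as CellTiter-Glo luminescence. Primary runs used MIPE at 11 points (0.78 nM-46 µM) and NPC at 8 points (0.59 nM-46 µM); follow-ups used 11 points.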
# [12] = Drug repurposing screens with cells derived from glioblastoma tumor samples (AID 1345199); conditions: GBM patient neurospheres viability, ATP luminescence, 48 h; Potency: tumour line A unless noted; activity, negative = cell killing: at 46 µM (top of the series), tumour line A unless noted; note: % is set by controls: 0 for no effect and ±100 for the full control effect; nearly all actives have a fitted effect of over 40% in size
# Procedure, shortened: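 Four patient lines of CD133+ GBM neurospheres were screened at several concentrations; hits were retested in those lines plus three slower-growing GBM lines, using 48-hour treatment and ATP-based viability.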
# CP335 = assay: qHTS profiling for inhibitors of Plasmodium falciparum proliferation (AID 504749); note: potency is the fitted concentration of half-maximal effect; nearly all actives have a fitted effect of over 60% in size; conditions: P. falciparum in erythrocytes, SYBR Green DNA, 72 h; series mostly up to 28.7 µM
# Procedure, shortened: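 P. falciparum-infected erythrocytes (0.3% parasitemia, 2.5% hematocrit final) were exposed to compounds for 72 h at 37 C in 5% CO2, then lysed with SYBR Green buffer overnight at room temperature; parasite DNA fluorescence was normalized to artemisinin and DMSO controls.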
# Tags give direction and shape of the fitted curve.
# Sequence of UniProt P36969 (P36969 whole entry, looked up): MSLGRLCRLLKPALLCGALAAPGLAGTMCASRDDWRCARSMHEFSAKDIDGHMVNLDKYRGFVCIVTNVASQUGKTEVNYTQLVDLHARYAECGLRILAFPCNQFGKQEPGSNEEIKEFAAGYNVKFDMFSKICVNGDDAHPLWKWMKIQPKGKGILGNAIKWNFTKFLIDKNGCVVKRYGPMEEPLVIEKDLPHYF
# Sequence of UniProt P11712 (P11712 whole entry, looked up): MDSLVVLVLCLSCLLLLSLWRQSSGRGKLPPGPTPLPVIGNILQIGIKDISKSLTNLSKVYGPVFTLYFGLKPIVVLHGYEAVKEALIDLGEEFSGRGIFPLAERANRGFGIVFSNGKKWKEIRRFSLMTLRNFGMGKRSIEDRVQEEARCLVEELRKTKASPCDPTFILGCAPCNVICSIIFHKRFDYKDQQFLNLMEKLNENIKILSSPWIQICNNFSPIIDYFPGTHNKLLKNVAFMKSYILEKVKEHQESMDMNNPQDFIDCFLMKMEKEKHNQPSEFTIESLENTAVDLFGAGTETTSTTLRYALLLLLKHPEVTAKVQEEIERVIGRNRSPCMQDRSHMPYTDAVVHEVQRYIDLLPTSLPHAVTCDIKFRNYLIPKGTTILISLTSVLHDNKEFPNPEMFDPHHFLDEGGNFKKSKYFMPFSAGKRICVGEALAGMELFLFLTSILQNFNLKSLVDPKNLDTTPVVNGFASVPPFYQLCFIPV
# Sequence of UniProt P07203 (P07203 whole entry, looked up): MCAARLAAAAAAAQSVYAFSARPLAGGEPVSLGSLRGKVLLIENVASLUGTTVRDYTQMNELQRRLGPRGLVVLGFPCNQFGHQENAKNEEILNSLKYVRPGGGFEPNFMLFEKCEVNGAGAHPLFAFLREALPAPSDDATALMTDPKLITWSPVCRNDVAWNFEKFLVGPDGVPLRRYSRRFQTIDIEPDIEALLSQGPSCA
structure (smiles),measurement,setting,value
CC1CC(=O)NN=C1c1ccc(NCC(C)(C)NCC(O)COc2cc(Cl)ccc2C#N)cc1 (configuration not stated),Potency,[1],inactive
same,Potency,[2],inactive
same,Potency,[3],"inconclusive [inhibitor, single point]"
same,"activity, negative = inhibition",[4],inconclusive: -32.5% [inhibitor]
same,Potency,[5],"inconclusive [inhibitor, partial curve]"
COc1cc(F)c(F)c(Nc2ccc(I)cc2F)c1NS(=O)(=O)C1(CC(O)CO)CC1 (configuration not stated),Potency,Es-2,"inconclusive [cytotoxic, partial curve, poor fit]"
same,Potency,HeLa,inactive
CN(CCc1ccc(Nc2ncc(-c3cccnc3)s2)cc1)Cc1ccccc1,Potency,[4],"inconclusive [inhibitor, partial curve, poor fit]"
O=C(O)c1cc2cccc([N+](=O)[O-])c2[nH]1,Potency,HeLa,inactive
same,Potency,Tov112D,"inconclusive [cytotoxic, single point]"
CC(CNS(=O)(=O)C(C)C)c1ccc(-c2ccc(C#N)cc2)cc1 (configuration not stated),Potency,Es-2,"inconclusive [cytotoxic, partial curve, poor fit]"
same,Potency,Tov112D,"inconclusive [cytotoxic, partial curve, poor fit]"
C=Cc1cc(O)cc2nc(-c3ccc(O)c(F)c3)oc12,Potency,[6],"inconclusive [inhibitor, single point]"
same,Potency,[4],"inconclusive [inhibitor, partial curve]"
same,Potency,[5],"inconclusive [inhibitor, partial curve]"
CC(C)CCC[C@@H](C)[C@H]1CC[C@H]2[C@@H]3CC=C4C[C@@H](OC(=O)NCCN(C)C)CC[C@]4(C)[C@H]3CC[C@]12C,Potency,[4],"inconclusive [inhibitor, single point]"
C=C1C(=O)OC2/C=C(\C)CC/C=C(\C=O)C(OC)C(OC(=O)C(C)CC)C12 (configuration not stated),Potency,Es-2,"inconclusive [cytotoxic, single point]"
CC1CCC/C=C/C(=O)c2c(O)cc(O)cc2CC(=O)O1 (configuration not stated),Potency,Es-2,"inconclusive [cytotoxic, single point]"
same,Potency,HeLa,"inconclusive [cytotoxic, partial curve]"
same,Potency,Tov112D,"inconclusive [cytotoxic, partial curve]"
C/C=C/C=C/C=C/C(=O)O[C@@H]1C=C(CO)C(O)(C(=O)OC)[C@@]2(C)CCCC(C)(C)C12 (some centres not stated),Potency,[5],inactive
O=C(Nc1ccc(-c2ccc(Cl)c(Cl)c2)cc1)C1=C(O)c2ccccc2S(=O)(=O)N1,Potency,[6],"inconclusive [inhibitor, partial curve, poor fit]"
C=C1C(=O)OC2/C=C(\CO)CC/C=C(\C=O)CC(OC(=O)CC(C)C)C12 (configuration not stated),Potency,Es-2,"inconclusive [cytotoxic, single point]"
CCC(CN)=C(c1ccccc1)c1ccccc1,Potency,[7],"inconclusive [cytotoxic, partial curve]"
same,Potency,[8],"inconclusive [cytotoxic, single point]"
same,Potency,[9],"inconclusive [cytotoxic, single point]"
same,Potency,[2],inactive
same,Potency,[10],"inconclusive [inhibitor, single point]"
CCC(C)C(=O)OC1CC(O)C23C4OCC5(C(O)CC2C1(C)C(O)O4)C3C(=O)C(O)C1(C)C(O)(c2ccoc2)CC2OC251 (configuration not stated),Potency,HeLa,"inconclusive [cytotoxic, partial curve, poor fit]"
same,Potency,Tov112D,active: 3.55 µM
CCN(CC)Cc1cccc(/C=C/c2nc3ccc(F)cc3c(=O)n2-c2ccccc2Cl)n1,Potency,HeLa,inactive
same,Potency,Tov112D,"inconclusive [cytotoxic, single point]"
C[C@@H]1C[C@H]2OC(=O)[C@@]3(C)CCC[C@](C)(C23)[C@@]1(O)CCC1=CC(=O)OC1O (some centres not stated),Potency,Es-2,inactive
Cc1c(NC(=O)c2cc3c(s2)CCCC3)cccc1-c1cn(C)c(=O)c(Nc2ccc(C3C(=O)N(C)CCN3C)cc2)n1 (configuration not stated),Potency,HeLa,"inconclusive [cytotoxic, single point]"
same,Potency,Tov112D,"inconclusive [cytotoxic, single point]"
O=C(O)[C@H](O)[C@@H](O)[C@H](O[C@@H]1O[C@H](CO)[C@H](O)[C@H](O)[C@H]1O)[C@H](O)CO,Potency,[11],inactive
same,Potency,[10],inactive
same,Potency,[4],"inconclusive [inhibitor, single point]"
same,Potency,[12],inactive
CC1(C)CCC(C)(C)c2cc(C#Cc3ccc(C(=O)O)cc3)ccc21,Potency,[6],"inconclusive [inhibitor, single point]"
C=C1CCC2[C@](C)(CCC[C@@]2(C)C=O)[C@H]1CC/C(C)=C/CO (some centres not stated),Potency,HeLa,inactive
CC(C)C(NC(=O)c1ccc2ccccc2n1)C(=O)NC(CC(=O)O)C(=O)COc1c(F)cccc1F (configuration not stated),Potency,Es-2,inactive
Fc1ccc(-c2nc(-c3c(F)cccc3F)[nH]c2-c2ccncc2)cc1,Potency,HeLa,"inconclusive [rising, single point]"
Cc1cc(C(=O)N2Cc3cnn(C)c3Nc3ccccc32)ccc1CNC(=O)N1CCC[C@H]1C(=S)N1CCCN(C)CC1,Potency,[6],"inconclusive [inhibitor, partial curve]"
same,Potency,Es-2,inactive
CCCCCc1ccc(/C=C/C(=O)Nc2cc(Cl)ccc2C(=O)O)cc1,Potency,[4],"inconclusive [inhibitor, partial curve, poor fit]"
same,Potency,[5],"inconclusive [inhibitor, partial curve, poor fit]"
C/C=C/C1=CC2=C(CO1)C(=O)C(C)(OC(=O)c1c(C)cc(O)cc1OC)C(O)C2 (configuration not stated),Potency,HeLa,inactive
CCCN1C[C@H](CSC)C[C@@H]2c3cccc4[nH]cc(c34)C[C@H]21,Potency,[8],inactive
same,Potency,[1],inactive
same,Potency,[9],"inconclusive [cytotoxic, partial curve, poor fit]"
same,Potency,CP335,"inconclusive [inhibitor, full curve]"
